Test results from PubChem BioAssay AID504832 (National Center for Advancing Translational Sciences (NCATS), 2011).
Among all 310,000 compounds or so, about 18,000 (5.8%) were called active. Inconclusive results, whose numbers are uncertain, are shown with a selection of clear calls. Calls follow the shape of the dose curve; as a rule, active = well fitted inhibition curve with a large enough effect; inconclusive = small, poorly fitted or top-dose-only effect, or another doubt; inactive = no such curve, though single readings can be large or run the other way. Potencies of inconclusive entries are left out as doubtful fits.

assay: Primary qHTS for delayed death inhibitors of the malarial parasite plastid, 48 hour incubation; details: P. falciparum luciferase growth in erythrocytes; series mostly up to 28.7 µM; activity change, negative = inhibition: at the top concentration
How it was run: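 Parasite viability was followed by luminescence of a genomically integrated firefly luciferase. Cultures held 0.1% parasitemia at 2% hematocrit (final), incubated under 5% CO2 at 37 C.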
% is scaled to controls: 0 for no effect and ±100 for the full control effect; potency is read from the fitted curve at half-maximal effect; tags tell the direction and shape of the fitted curve.

| SMILES | Potency | activity change, negative = inhibition |
| --- | --- | --- |
| FC(F)(F)c1cnc(N2CCCN(C(=S)Nc3ccccc3)CC2)c(Cl)c1 | active: 1.65 µM |  |
| CC(C)c1ccc(NC2CCCN(C(=O)CCN3CCCCO3)C2)cc1 (configuration not stated) |  | inactive: 10.5% |
| COc1ccc(S(=O)(=O)Nc2ccc3c(c2)n(C)c(=O)n3C)cc1 |  | inactive: -7.64% |
| Cc1ccc(C)c(NC(=S)NCCc2c[nH]c3ccccc23)c1 | inconclusive [inhibitor, single point] |  |
| Cc1cccc(-n2ncc3c(Nc4c(C)n(C)n(-c5ccccc5)c4=O)ncnc32)c1 | inconclusive [inhibitor, partial curve, poor fit] |  |
| N/C(=N\OC(=O)c1ccccc1)c1ccncc1 |  | inactive: 75% |
| Cc1ccc2oc(=O)c(/C=C(\O)CC(C)C)nc2c1 | inconclusive [inhibitor, single point] |  |
| CCOc1cc(/C=C/c2ccc3cccc([N+](=O)[O-])c3n2)ccc1OCC(=O)N(C)C | inconclusive [inhibitor, partial curve] |  |
| Cc1cc(C)n(C2CC(=O)N(c3ccc(Cl)c(Cl)c3)C2=O)n1 (configuration not stated) |  | inactive: 11.1% |
| COc1ccc(O)c(C(=O)C2c3ccccc3C(=O)N2c2ccc(C)cc2)c1 (configuration not stated) | inconclusive [inhibitor, single point] |  |
| CN(CC(=O)Nc1cccc(F)c1)C(=O)CCCNC(=O)c1ccc(Cl)cc1 |  | inactive: 132% |
| O=C1NC(c2ccccc2Br)=N/C1=C\c1ccco1 | inconclusive [inhibitor, single point] |  |
| Cc1nn2c(COc3ccc(NC(=O)C(C)C)cc3)nnc2c2ccccc12 | inconclusive [inhibitor, partial curve, poor fit] |  |
| O=C(Nc1ccc(C(=O)O)cc1)/C(=C\c1cccc([N+](=O)[O-])c1)NC(=O)c1ccc(Br)o1 |  | inactive: -16.8% |
| COc1ccc([C@@H]2[C@H]3CN(C(C)=O)CC=C3C(C#N)=C(N)C2(C#N)C#N)c2ccccc12 | inconclusive [inhibitor, full curve] |  |
| C/C(=N\NC(=O)c1cc(-c2cccs2)nc2ccccc12)c1ccccn1 | inconclusive [inhibitor, full curve, poor fit] |  |
| COc1cccc(CNc2ccc3[nH]c(=O)[nH]c3c2)c1OCc1ccccc1F |  | inactive: 10.3% |
| COc1cc(-c2[nH]ncc2CN2CCc3sccc3C2)cc(OC)c1OC | inconclusive [inhibitor, partial curve] |  |
| CCOc1ccc(CN2CCN(Cc3cc4c(cc3Cl)OCO4)CC2CCO)cc1 (configuration not stated) | inconclusive [inhibitor, single point] |  |
| COc1ccc(N2Cc3ccccc3C2=O)cc1 |  | inactive: -19.7% |
| COc1ccc(/C=N/NC(=O)c2cccc([N+](=O)[O-])c2)cc1OS(=O)(=O)c1ccc(C)cc1 | inconclusive [inhibitor, partial curve, poor fit] |  |
| O=C(c1ccc(Cl)cc1)C1CCN(C(=O)C2CC2)CC1 | inconclusive [inhibitor, partial curve, poor fit] |  |
| Cc1cc(C)c(S(=O)(=O)Cc2ccccc2)c(OC(C)C)n1 | inconclusive [inhibitor, partial curve] |  |

| SMILES | Potency | activity change, negative = inhibition |
| --- | --- | --- |
| COC(=O)CSc1ncnc2c1sc1nc3c(cc12)COC(C)(C)C3 |  | inactive: 81.5% |
| CCOC(=O)C1CCN(C(=O)COC(=O)c2ccccc2C(=O)c2ccc(Cl)cc2)CC1 | inconclusive [inhibitor, single point] |  |
| CC(Cc1ccccc1)NC(=O)c1cc([N+](=O)[O-])ccc1Cl (configuration not stated) | inconclusive [inhibitor, full curve, poor fit] |  |
| CCn1cnc2c1c(=O)n(CC(=O)OC)c(=O)n2Cc1ccccc1 | inconclusive [inhibitor, partial curve, poor fit] |  |
| CCOc1ccc(NC(=O)c2cc3c(C)nc4ccccc4c3o2)cc1 | inconclusive [inhibitor, single point] |  |
| CC(C)C(c1nnnn1C1CCCC1)N1c2ccccc2CC1C (configuration not stated) | active: 3.7 µM |  |
| Cc1cc(N2CCOCC2)nc2ccc(NC(=O)CCC(=O)N3CCN(c4ccc(F)cc4)CC3)cc12 | inconclusive [inhibitor, single point] |  |
| COc1cccc(N2C(=O)C3C(C2=O)C3(c2ccccc2)c2ccccc2)c1 (configuration not stated) | inconclusive [inhibitor, single point] |  |
| NC(=O)C1=C[C@H](c2ccc(Br)cc2)C[C@H](OCc2ccc(CO)cc2)O1 |  | inactive: 0.807% |
| Cc1c(C(=O)NCc2ccc3c(c2)OCO3)oc2ccc(S(=O)(=O)N3CCC(C)CC3)cc12 | active: 9.28 µM |  |
| CN1C(=O)C(=Cc2ccc(N3CCCCCC3)cc2)C(=O)N(C)C1=O | inconclusive [inhibitor, single point] |  |
| CCN1C(=O)/C(=C\c2ccncc2)SC1=Nc1ccc(C)c(C)c1 | inconclusive [inhibitor, single point] |  |
| N#Cc1ccc(-c2nc3cc(Cl)ccc3c(=O)n2O)cc1 | inconclusive [inhibitor, single point] |  |
| CC(C)(C)OC(=O)NCc1ccc(NC(=O)c2nc[nH]c2C(=O)N[C@@H](Cc2ccccc2)C(=O)OCc2ccccc2)cc1 | active: 8.28 µM |  |
| Cn1c(=O)c2c(n3cnnc13)-c1ccccc1CC21CCCC1 | inconclusive [inhibitor, single point] |  |
| O=S(=O)(c1ccccc1)N1c2cc(Cl)ccc2Oc2nc3ccccc3nc21 | inconclusive [inhibitor, single point] |  |
| COc1ccc2c(c1)-c1c(ssc1=S)C(C)(C)N2 | inconclusive [inhibitor, single point] |  |
| COc1cc(/C=C/C(=O)C2C(=O)C=C(C)OC2=O)cc(OC)c1O (configuration not stated) | inconclusive [inhibitor, partial curve] |  |
| CCOc1ccc(NCc2nnc(SCc3ccccc3Cl)n2-c2ccccc2)cc1 | inconclusive [inhibitor, partial curve, poor fit] |  |
| CC1=C(C(=O)Nc2ccc(C)cc2C)C(c2cccc(Cl)c2)n2nc(C(=O)OC(C)C)nc2N1 (configuration not stated) | inconclusive [inhibitor, partial curve, poor fit] |  |
| CC(C)(C)OC(=O)[C@H](Cc1ccccc1)NC(=O)c1nc[nH]c1C(=O)N1CCN(C(=O)OC(C)(C)C)CC1 | inconclusive [inhibitor, partial curve, poor fit] |  |
| CCCOc1ccc(/C=N/NC(=O)c2nnn(-c3nonc3N)c2-c2cccs2)cc1OC | active: 13.1 µM |  |
| Cc1ccc(C(=O)N/N=C/c2c(O)ccc3ccccc23)cn1 | active: 3.7 µM |  |

| SMILES | Potency | activity change, negative = inhibition |
| --- | --- | --- |
| Cc1ccc(OCC(=O)Nc2ccc(N3CCN(C(=O)c4ccco4)CC3)cc2)c(C)c1 | inconclusive [inhibitor, full curve] |  |
| O=C(Nc1cc(F)cc(F)c1)c1ccc(NCCCN2CCCCCC2)c([N+](=O)[O-])c1 | inconclusive [inhibitor, partial curve, poor fit] |  |
| COc1cc(NC(=O)c2c(F)cccc2F)nc(OC)n1 |  | inactive: 94.2% |
| O=C(NCCCn1ccnc1)c1cc2cc([N+](=O)[O-])ccc2oc1=O |  | inactive: 19.3% |
| CC(NC(=O)Cc1ccc(S(=O)(=O)N2CCOCC2)s1)c1ccc(Cl)c(Cl)c1 (configuration not stated) | inconclusive [inhibitor, partial curve] |  |
| COc1ccccc1OCCC(=O)O | inconclusive [inhibitor, single point] |  |
| Cc1cc(-c2nnnn2-c2ccc(C(F)(F)F)cc2)no1 |  | inactive: 54% |
| Cc1ccc(C(=O)c2c3ccc([N+](=O)[O-])cc3[n+]([O-])n2CCC(N)=O)cc1 |  | inactive: -20.7% |
| O=C(NC1(C(F)(F)F)N=C(c2ccccc2)NC1=O)c1ccccc1 (configuration not stated) |  | inactive: 2.09% |
| CCCC1O[C@@H]2CC3C4CCC5=CC(=O)C=C[C@]5(C)C4C(OC(C)=O)C[C@]3(C)[C@]2(C(=O)COC(C)=O)O1 (some centres not stated) | active: 9.28 µM |  |
| Cc1ccc(-c2nn3cnnc3c3ccccc23)cc1C | inconclusive [inhibitor, single point] |  |
| CCO[C@@H]1OC(C(=O)N2CCN(Cc3ccc4c(c3)OCO4)CC2)=C[C@H](C2CC2)[C@H]1CCCO | inconclusive [inhibitor, full curve, poor fit] |  |
| Cc1ccc(-c2ccc([C@H]3[C@H]4C=CC[C@@H](C)[C@@H]4C(=O)N3Cc3ccccc3)c(F)c2)cc1 | active: 11.7 µM |  |
| Cc1nc(C)c(-c2ccc(SCC(=O)Nc3cccc(Cl)c3C)nn2)s1 |  | inactive: -28.6% |
| COC(=O)c1c(NC(=O)c2ccccc2N(C)S(=O)(=O)c2ccccc2)sc2c1CCCC2 | inconclusive [inhibitor, single point] |  |
| N#Cc1ccc(C(=O)CN2CCN(c3ccccc3)CC2)cc1 | inconclusive [inhibitor, single point] |  |
| O=c1cccccc1NN=C1CCCCCC1 |  | inactive: 97.8% |
| O=[N+]([O-])c1ccc2c(c1)nc(CO)n2Cc1ccccc1 | inconclusive [inhibitor, single point] |  |
| CC(=O)Nc1ccc(S(=O)(=O)Nc2cc(C)cn(Cc3ccccc3)c2=O)cc1 |  | inactive: -16.8% |
| O=C(OCc1nc2ccccc2[nH]1)C12CC3CC(CC(C3)C1)C2 | inconclusive [inhibitor, partial curve] |  |
| Cc1cc(C)c(C)c(OCC(=O)O/N=C(\N)c2ccncc2)c1 | inconclusive [inhibitor, single point] |  |
